Assay results from PubChem BioAssay AID1671189 (National Center for Advancing Translational Sciences (NCATS), 2021).
Among all 1,100 compounds or so, about 70 (6%) were called active. The inconclusive results got no clear call from the source; some entries with a clear call stand among them for comparison. The call rests on the fitted dose curve; in most records, active means well fitted curve in the direction sought with a large enough effect; inconclusive means small, poorly fitted or top-dose-only effect, or another doubt; inactive means no such curve, though single readings can be large or run the other way. Potencies beside an inconclusive call are fits to weak or partial responses and may not hold up.

Molecular target: Polyunsaturated fatty acid lipoxygenase ALOX12 (Homo sapiens) (UniProt P18054)
UniProt P18054, sequence (P18054 whole entry, looked up): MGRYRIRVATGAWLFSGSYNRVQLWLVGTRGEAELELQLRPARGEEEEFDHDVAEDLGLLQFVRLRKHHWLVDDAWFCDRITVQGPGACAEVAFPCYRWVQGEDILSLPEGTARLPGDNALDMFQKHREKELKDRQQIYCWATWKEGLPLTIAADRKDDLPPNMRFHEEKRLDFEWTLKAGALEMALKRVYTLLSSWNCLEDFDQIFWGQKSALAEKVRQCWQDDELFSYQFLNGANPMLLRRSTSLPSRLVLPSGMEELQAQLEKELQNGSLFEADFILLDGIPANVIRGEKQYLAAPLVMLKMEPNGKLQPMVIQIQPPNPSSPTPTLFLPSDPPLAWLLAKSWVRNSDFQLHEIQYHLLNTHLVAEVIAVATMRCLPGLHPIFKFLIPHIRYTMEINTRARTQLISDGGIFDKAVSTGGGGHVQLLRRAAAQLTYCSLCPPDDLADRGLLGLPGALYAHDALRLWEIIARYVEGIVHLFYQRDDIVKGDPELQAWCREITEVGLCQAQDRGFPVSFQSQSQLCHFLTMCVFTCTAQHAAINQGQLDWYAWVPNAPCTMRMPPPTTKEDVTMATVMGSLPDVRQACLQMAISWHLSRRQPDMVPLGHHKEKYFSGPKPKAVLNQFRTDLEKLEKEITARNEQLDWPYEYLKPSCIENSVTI
Test: Confirmatory qHTS assay for inhibitors of human arachidonate 12S-lipoxygenase (ALOX12): Round 2
Conditions: purified human 12-LOX, xylenol orange absorbance; activity change, negative = inhibition: at 125 µM (top of the series)
Procedure, shortened: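 Activity was measured as hydroperoxide formation via ferrous/xylenol orange, taking the 573 nm to 405 nm absorbance ratio. Reaction: 40 uM arachidonic acid, 30 min at room temperature, after 15 min compound preincubation with 150 nM enzyme, pH 7.0 Hepes buffer.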
On the % scale 0 is the no-effect control and ±100 the full control effect; potency means the concentration at half of the fitted maximal effect.

Structure (SMILES) | Potency | activity change, negative = inhibition
FC(F)(F)c1ccc(N2C3CCC2CN(Cc2cccs2)C3)cc1 | inconclusive: 86.9 µM [inhibitor, partial curve, poor fit] | 
COc1cccc(CNc2ncnc3c2CN(C2CCCNCC2)C(=O)CN3C)c1 (configuration not stated) |  | inactive: -12.4%
O=C1Nc2ccccc2C12CCN(Cc1ccc(C(F)(F)F)cc1)C2 (configuration not stated) | inconclusive: 49.4 µM [inhibitor, partial curve] | 
O=C(O)c1ccc(-c2cnccn2)cc1 |  | inactive: -16.6% [at 233 µM]
O=[S+]([O-])(c1ccc(Br)cc1)c1nnn2c1nc(NCc1ccc(F)cc1)c1ccccc12 | inconclusive: 6.22 µM [inhibitor, full curve, poor fit] | 
CCN1CCCCC12Cc1ccccc1CN(S(=O)(=O)c1ccccc1)C2 (configuration not stated) | inconclusive: 6.98 µM [inhibitor, full curve] | 
Cn1nc(C2CCNC2)c2c(C(=O)NC3CC3)cc(C3CC3)nc21 (configuration not stated) |  | inactive: -13.8%
Cc1ccc(CN2CCC3(Cc4ccccc4CNC3=O)C2)cc1 (configuration not stated) | inconclusive: 13.8 µM [inhibitor, partial curve, poor fit] | 
COc1ccccc1C(=O)N1CCn2c(nnc2C2CCNCC2)C1 |  | inactive: -23.8%
O=C(c1ccc(=O)[nH]c1)N1CCC(C(=O)N2CCc3c(nc4cc(-c5ccccc5)[nH]n4c3=O)C2)CC1 | inconclusive: 1 µM [inhibitor, full curve, poor fit] | 
O=C1NCc2ccccc2CC12CCCN2Cc1ccc(Br)cc1 (configuration not stated) | inconclusive: 55.5 µM [inhibitor, partial curve, poor fit] | 
CNc1oc(-c2cccc3cnccc23)nc1C#N | inconclusive: 17.2 µM [inhibitor, partial curve, poor fit] | 
COc1ccc(-c2noc(Nc3ccccc3)n2)cc1 | inconclusive: 3.55 µM [inhibitor, full curve, poor fit] | 
COc1ccc(S(=O)(=O)NCC2CCCN(Cc3ccc(-c4ccco4)cc3)C2)cc1 (configuration not stated) | inconclusive: 17.8 µM [inhibitor, partial curve] | 
O=C(c1ccccc1F)N1CC(Oc2ccc3c(c2)OCO3)C1 | inconclusive: 123 µM [inhibitor, partial curve, poor fit] | 
Cc1cc(C=NNC(=O)Cn2c3ccccc3c(=O)c3ccccc32)c(C)n1-c1ccccc1 | inconclusive: 24.3 µM [inhibitor, partial curve] | 
CC(=O)N1CCC(C(=O)N2CCC3(CC2)NC(=O)N(c2cccc(Cl)c2)N3)CC1 | active: 12.6 µM | 
CSCC(=O)N[C@H]1CCN2C(=O)c3ccc(Cl)cc3NC(=O)[C@H]12 | inconclusive: 44.7 µM [inhibitor, partial curve, poor fit] | 
Cc1ccc(CCN2CCC3(Cc4ccccc4CNC3=O)C2)cc1 (configuration not stated) | inconclusive: 13.8 µM [inhibitor, full curve] | 
CNc1nc(C#N)c(-c2cccc3ccccc23)o1 | inconclusive: 21.7 µM [inhibitor, partial curve, poor fit] | 
CN(C)CCCC(=O)N1Cc2ccccc2CC2(CCCCN2Cc2ccccc2)C1 (configuration not stated) |  | inactive: -27.8%

Structure (SMILES) | Potency | activity change, negative = inhibition
CCCNC(=O)[C@@H]1CCCN1[C@@H](C(=O)NC)c1ccc(OC)cc1 | inconclusive: 12.6 µM [inhibitor, full curve] | 
Cc1noc(-c2ccc(OC3CN(C(=O)Cc4cccs4)C3)cc2)n1 | inconclusive: 11.2 µM [inhibitor, full curve] | 
O=c1n(-c2cccc(Cl)c2)nc2n1CCN([S+](=O)([O-])c1ccccc1)C2 |  | inactive: -36%
O=C(Nc1ccc(-c2cccc(F)c2)cc1)C1CCCN1Cc1cnc[nH]1 (configuration not stated) |  | inactive: 13.7% [at 64.5 µM]
O=C(CC1C(=O)NCCN1CC(c1ccccc1)c1ccccc1)NCc1ccon1 (configuration not stated) | inconclusive: 31.6 µM [inhibitor, partial curve] | 
CCOC(=O)N1CCC(N2CCCC(CCC(=O)Nc3ccc(OC)c(Cl)c3)C2)CC1 (configuration not stated) | active: 12.6 µM | 
Cc1ccc(-c2ccc(C=O)cc2)cc1Cl | inconclusive: 28.5 µM [inhibitor, partial curve] | 
Cc1ccc(C(=O)N2CCCC3(CC(c4cccnc4)=NO3)C2)cc1 (configuration not stated) | inconclusive: 21.8 µM [inhibitor, partial curve] | 
O=C1CO[C@H]2CN(c3ncccn3)C[C@H]2N1Cc1ccncc1 | inconclusive: 44.7 µM [inhibitor, partial curve] | 
COc1ccc(-c2nc(C3CC3)nc3c2CN(C(=O)c2ccccc2)CC3)cc1 | inconclusive: 39.3 µM [inhibitor, partial curve, poor fit] | 
CC(C)NC(=O)N1CCOC2(CCN(C(=O)CCCN)CC2)C1 |  | inconclusive: -43.9% [inhibitor]
CS(=O)(=O)N1CCC2(CC1)CN(Cc1ccc(O)cc1)Cc1ccccc1O2 | inconclusive: 55.5 µM [inhibitor, partial curve, poor fit] | 
O=C(C1CCCC1)N1CC2(CCN(Cc3ccc(Cl)cc3)C2)Cc2ccccc21 (configuration not stated) | active: 6.22 µM | 
O=C1NCc2ccccc2CC12CCN(Cc1c[nH]c3ccccc13)C2 (configuration not stated) | inconclusive: 39.3 µM [inhibitor, partial curve] | 
COc1ccc(-c2noc([C@@H]3Cc4nc[nH]c4CN3C(=O)NC3CCCCC3)n2)cc1 | active: 10 µM | 
O=[S+]([O-])(Nc1ccc(N2CCNCC2)cc1)c1ccc(NCc2ccc(Br)cc2O)cc1 | active: 21.7 µM | 
CC(=O)NCCC(=O)N1Cc2ccccc2CC2(CCCN2CCc2ccc(C)cc2)C1 (configuration not stated) | inconclusive: 49.4 µM [inhibitor, partial curve, poor fit] | 
COc1ccc(-c2nc(C3CC3)nc3c2CCN(Cc2ccc(C#N)cc2)CC3)cc1 | inconclusive: 6.98 µM [inhibitor, partial curve, poor fit] | 
O=C(NC1CCCCC1)N1Cc2[nH]cnc2C[C@H]1c1nc(-c2cccc([N+](=O)[O-])c2)no1 | active: 6.31 µM | 
CCC(=O)NC(c1cccs1)c1cc([N+](=O)[O-])c2cccnc2c1O (configuration not stated) | active: 6.11 µM | 
COc1cccc(N2C(=O)NC(=NC3CCCCC3)C23CCCN(CCC(C)C)C3)c1 (configuration not stated) | inconclusive: 0.0312 µM [inhibitor, full curve, poor fit] | 
